Reference: the supplement of paper PMC10126150
Values marked as one replicate rest on one cluster of the flow cell; about a third of the high ones do not repeat.

Test system: ATP
Assay: switch fluorescence ratio, 500 uM ATP over buffer (Cy3 cluster intensity, sum of 5 cycles each) (fold (ratio)); higher = stronger signal-on switching upon ATP binding; sequences stand for … in TCGTCGGCAGCGTCAGATGTGTATAAGAGACAGTTTTTTTTTTTTTTTTTTTTTTTTT…TC
Conditions: aptamer strand: ATP DNA aptamer (quencher-CACCTGGGGGAGTATTGCGGAGGAAGG + anchor), 100 nM annealed; ATP concentration: 500 uM; one replicate
Method in brief: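 Cy3-labelled switching-strand clusters on a modified Illumina MiSeq flow-cell were annealed to 100 nM quencher-labelled ATP aptamer, imaged in selection buffer, then imaged after 15 min with 500 uM ATP at 22 °C. Five buffer/ATP cycles ran, with NaOH stripping and re-annealing between them. The fluorescence ratio is summed target-cycle over summed buffer-cycle Cy3 intensity per cluster, averaged per switch-domain sequence. Clusters outside 100-1000 RFU were excluded.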
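Also: ATP exposure 15 min at 22 °C before imaging.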

Row | Sequence | switch fluorescence ratio
1 | GCAGAGCCGG | 1.03
2 | GCAGAGGTTT | 1.01
3 | GCAGATCCAC | 1.13
4 | GCAGATCCG | 1.04
5 | GCAGCAGTTG | 1.09
6 | GCAGCCCGGC | 0.938
7 | GCAGCGAGAT | 2.14
8 | GCAGCGCCTT | 0.993
9 | GCAGCTATTG | 1.05
10 | GCAGGATCGG | 0.975
11 | GCAGGCAGGG | 1.02
12 | GCAGGCAGTT | 0.975
13 | GCAGGCCCTA | 0.968
14 | GCAGGGAGAA | 0.991
15 | GCAGGGCAAG | 0.992
16 | GCAGGGTGTT | 1.11
17 | GCAGGTAAGA | 0.976
18 | GCAGGTTTTT | 1.02
19 | GCAGTAAAC | 1.45
20 | GCAGTAGCAC | 0.999
21 | GCAGTATGTT | 0.982
22 | GCAGTCCAAT | 0.99
23 | GCAGTCGCGA | 1.04
24 | GCAGTGCCGA | 1.02
25 | GCAGTGCGCT | 1.03

Row | Sequence | switch fluorescence ratio
26 | GCAGTGCTAT | 1
27 | GCAGTGGGAA | 1.02
28 | GCATAAAAGA | 0.981
29 | GCATAATGAC | 1.17
30 | GCATAGAGAT | 0.965
31 | GCATATACGC | 1.96
32 | GCATATGGGG | 1.03
33 | GCATATTTGG | 0.965
34 | GCATCCGTAC | 3.95
35 | GCATCGGACC | 1.12
36 | GCATCGGGCG | 1.03
37 | GCATCTTGGA | 0.924
38 | GCATGAAGGC | 1.06
39 | GCATGAGAAA | 1
40 | GCATGATACC | 1.1
41 | GCATGCCATC | 1.04
42 | GCATGCGTTT | 0.996
43 | GCATGCTACA | 0.998
44 | GCATGGAGCG | 0.959
45 | GCATGGCGCA | 1.05
46 | GCATGGGTCG | 0.975
47 | GCATGTGCAG | 1.04
48 | GCATTACATA | 1.07
49 | GCATTCAGAT | 0.971
50 | GCATTGCGCA | 1

Row | Sequence | switch fluorescence ratio
51 | GCATTGGATT | 1.02
52 | GCATTGGCTA | 1.04
53 | GCATTTAGTT | 0.96
54 | GCATTTCGAA | 0.986
55 | GCATTTGACT | 1.04
56 | GCATTTGCGA | 1.02
57 | GCATTTTGAG | 0.926
58 | GCCAAAGGTA | 0.984
59 | GCCAACGTAC | 2.08
60 | GCCAACTTAC | 1.32
61 | GCCAAGACGA | 1.31
62 | GCCAAGTATA | 1
63 | GCCAATACGT | 3.11
64 | GCCAATGCGT | 1.03
65 | GCCACAGATG | 1.41
66 | GCCACGACGT | 1.01
67 | GCCACTAGCC | 1.02
68 | GCCAGAGGTT | 1.03
69 | GCCAGGAAGC | 0.952
70 | GCCAGGGTCG | 1.02
71 | GCCATAAGTC | 1.28
72 | GCCATCAGAA | 0.99
73 | GCCATCCGTG | 1.06
74 | GCCATCTGAT | 0.971
75 | GCCATGCACC | 1.05

Row | Sequence | switch fluorescence ratio
76 | GCCATGCGGG | 1.01
77 | GCCATGGAAG | 1.01
78 | GCCATTCCGT | 1.06
79 | GCCATTTCCT | 1
80 | GCCCAAAACC | 1.09
81 | GCCCACGATT | 1.03
82 | GCCCAGCCAA | 1.02
83 | GCCCATAGAG | 0.991
84 | GCCCCCCTAC | 1.13
85 | GCCCCGAGGT | 1.04
86 | GCCCCGGTTT | 0.994
87 | GCCCCTCGTC | 0.993
88 | GCCCGATGCA | 1.02
89 | GCCCGCGAGG | 1.04
90 | GCCCGGCCGC | 1.03
91 | GCCCGGGTAA | 1.03
92 | GCCCGGTGA | 1.78
93 | GCCCGTACTT | 1
94 | GCCCTAGCA | 0.994
95 | GCCCTAGGGT | 1.09
96 | GCCCTCAGA | 1.03
97 | GCCCTGAATG | 0.981
98 | GCCCTTAAGG | 0.917
99 | GCCCTTATAA | 0.959
100 | GCCCTTTTTG | 1.01
